Hit rate of the full screen: of about 110,000 compounds, about 230 (0.21%) showed an effect of 50% or more. Some of the results follow.
Each compound was assayed against DPAP1 (Plasmodium falciparum, UniProt Q8IIJ9) (assay: primary screen, percent inhibition; read by cleavage of a fluorogenic dipeptide substrate; higher = more effect of the substance).
Design: species or system P. falciparum D10 trophozoite lysates; single well
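Note: 30 min substrate incubation versus DMSO and 10 µM JCP410 controls.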

Chain of DPAP1 (Q8IIJ9 whole entry, looked up): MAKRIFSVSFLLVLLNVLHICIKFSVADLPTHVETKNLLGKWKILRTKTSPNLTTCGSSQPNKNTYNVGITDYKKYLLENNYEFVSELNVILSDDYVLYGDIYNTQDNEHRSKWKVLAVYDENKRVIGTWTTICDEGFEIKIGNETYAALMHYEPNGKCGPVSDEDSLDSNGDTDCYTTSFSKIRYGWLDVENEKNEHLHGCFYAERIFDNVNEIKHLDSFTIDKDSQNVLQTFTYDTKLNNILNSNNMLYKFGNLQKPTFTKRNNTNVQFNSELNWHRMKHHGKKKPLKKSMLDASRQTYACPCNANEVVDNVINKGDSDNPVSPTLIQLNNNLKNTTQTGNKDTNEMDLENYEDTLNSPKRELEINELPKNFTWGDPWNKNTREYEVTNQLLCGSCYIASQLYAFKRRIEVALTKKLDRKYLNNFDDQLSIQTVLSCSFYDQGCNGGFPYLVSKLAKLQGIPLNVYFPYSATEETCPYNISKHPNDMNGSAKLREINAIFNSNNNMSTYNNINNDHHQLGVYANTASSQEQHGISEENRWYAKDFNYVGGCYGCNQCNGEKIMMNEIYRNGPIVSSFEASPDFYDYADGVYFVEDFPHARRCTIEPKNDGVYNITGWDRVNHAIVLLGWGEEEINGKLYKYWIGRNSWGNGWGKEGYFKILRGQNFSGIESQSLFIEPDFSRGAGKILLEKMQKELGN

Compound	% Inhibition @ 10 uM [%]
Cc1cc(/C=C2\NC(=O)NC2=O)c(C)n1-c1ccc(OCc2ccccc2Cl)cc1	13.9
CC(/C=C(\O)c1cccnc1)=N\c1ccc(Br)c(Cl)c1	-0.68
CCc1[nH]nc2c1C(c1ccc(Cl)c(Cl)c1)C(C#N)=C(N)O2 (stereo not drawn)	-5.34
Cc1ccc2c(c1)c1c(n2C)C(O)CCC1 (stereo not drawn)	-3.48
Cc1ccc(NC(=O)c2cccs2)c(C)c1	-5.84
CNCCOC(c1ccc(F)cc1)c1ccccc1F (stereo not drawn)	0.343
O=C(O)C1Cc2c([nH]c3ccccc23)C(c2ccccc2O)N1 (stereo not drawn)	-1.45
O=C(NCCC1=CCCCC1)C1CCN(c2ccc(-c3cccs3)nn2)CC1	3.49
CSC1=C(C#N)C(c2ccccc2)C(C(C)=O)=C(C)N1 (stereo not drawn)	4.66
O=C(CSc1nc(O)cc(O)n1)C12CC3CC(CC(C3)C1)C2	2.58
COc1cc(C)nc(NC(=O)NS(=O)(=O)c2c(C)cc(Cl)nc2Cl)n1	0.503
CN(C)CCN(Cc1ccccc1)Cc1cccc(Cl)c1Cl	1.57
C=C(Br)Cn1c(CCCNC(=O)c2ccco2)nc2ccccc21	-1.22
Cc1ccc(NC(=O)CN(c2cccc(C)c2C)S(C)(=O)=O)cc1Cl	3.8
CCOc1ccc2oc(-c3ccccc3)c(C(=O)O)c2c1	1.37
CCCC(=O)Nc1ccc(C(=O)Nc2cc(C(F)(F)F)ccc2Cl)cc1	-0.661
Cc1cc(C)c(NC(=O)Nc2ccccc2)c(Cl)c1	-5.92
CCN(CC)CC(=O)Nc1c(C)cc(C)cc1C	-0.833
CC(=O)c1c(C)[nH]c(C(=O)N2CCCCCC2)c1C	-2.29
COc1cc2c(cc1OC)C(c1ccncc1)NCC2 (stereo not drawn)	3.31
COc1ccc2[nH]c3c(c2c1)CCn1c-3nc2sc3c(c2c1=N)CCCC3	-2.51
CCN(CC)C(=O)CCCC(=O)c1c[nH]c2ccccc12	-5.97
COc1ccc(C2=N/C(=C/c3c(OC)ccc4ccccc34)C(=O)O2)cc1Br	3.58
O=C(COc1ccc(S(=O)(=O)NC2CCCC2)cc1)NCc1cccnc1	-1.61
CCOC(=O)c1c(C)nc2c(c1-c1ccccc1)C(=O)CC(C)(C)C2	3.7
CC1=C(C(=O)OCC2CCCO2)C(c2c(F)cccc2Cl)CC(=O)N1 (stereo not drawn)	-3.51

Compound	% Inhibition @ 10 uM [%]
CC(C)C[C@H](NC(=O)OCc1ccc[n+](CC(N)=O)c1)C(=O)NCC#N	-0.778
O=C(NCc1cccnc1)/C(=C\c1cccc(Oc2ccccc2)c1)S(=O)(=O)c1ccccc1	0.487
COc1ccccc1-c1cc(-c2ccccc2)nc(SC)c1C#N	-0.736
COCCCN1COc2ccc3c(C)cc(=O)oc3c2C1	-3.36
O=C1CCCN1CC12CC3CC(CC(C3)C1)C2	-1.3
COc1cccc(C2C=C(c3ccc(C)cc3)Nc3nnnn32)c1OC(F)F (stereo not drawn)	0.0842
CNS(=O)(=O)c1cc(-c2nnc(N3CCOCC3)c3ccccc23)ccc1C	-1.1
O=C(COc1ccc(Cl)cc1)NCc1nnc(SCC(=O)NCCc2ccccc2)o1	0.163
COc1ccc(-c2csc(NC(=O)C3CCCCC3C(=O)O)n2)cc1 (stereo not drawn)	-2.18
Cc1ccsc1CN1CCN(c2cccc(Cl)c2)CC1	-7.42
CCOc1cc(NC(=O)c2ccccc2Cl)c(OCC)cc1N	1.92
CN1CCN(CCCNC(=O)CCCN2C(=O)CSc3ncccc32)CC1	4.22
O=C1c2ccccc2C(Nc2cccnc2)N1Cc1ccccc1 (stereo not drawn)	-1.08
CCN(CC)C(=S)SCc1nc2ccccc2s1	-3.92
CCOC(=O)N1CCN(C(=O)CCc2ccc(S(=O)(=O)NC3CCCCC3)cc2)CC1	0.163
CCn1c(C(=O)NC(C)c2ccccc2)cc2sc(Cl)cc21 (stereo not drawn)	1.89
Cc1scc(CN2CCN(C(=O)c3ccco3)CC2)c1C	0.124
COCCNC(=O)CCCN1C(=O)C(c2ccccc2)Oc2cccnc21 (stereo not drawn)	-2.1
CCN(CC)CCNC(=O)c1cc2cc3ccc(C)cc3nc2s1	0.913
C1CNC(C23CC4CC(CC(C4)C2)C3)=N1	-0.828
CC(=O)N[C@H]1[C@H](Oc2cccc3ccccc23)O[C@@H]2COC(C)(C)O[C@H]2[C@@H]1O	-3.46
Cc1cc(C)c2c(-n3cccc3)c(C(=O)NC(C)c3ccc4c(c3)OCCO4)sc2n1 (stereo not drawn)	5.42
CCOc1cc2c(cc1/C=C1/NC(=O)N(CC(=O)Nc3ccc(F)cc3)C1=O)OCO2	-0.303
c1ccc(CCN2CCN(c3ncnc4c3cnn4-c3ccccc3)CC2)cc1	1.07
CCN1C(=O)C(F)(CC)C(=O)c2ccccc21 (stereo not drawn)	1.35

Source: publication PMC6919601, “Identification of Plasmodium dipeptidyl aminopeptidase allosteric inhibitors by high throughput screening” (PLoS ONE, 2019)
